Assay results taken from the RNAGym collection of RNA variant scans (doi:10.1073/pnas.2313332121).
Variants at the background level are over-represented here.

B1: TPR 5TU (parent)
chain: GGAUCUUCUCGAUCUAACAAAAAAGACAAAUCUGCCACAAAGCUUGAGAGCAUCUUCGGAUGCAGAGGCGGCAGCCUUCGGUGGCGCGAUAGCGCCAACGUUCUCAACUAUGACACGCAAAACGCGUGCUCCGUUGAAUGGAGUUUAUCAUG

Variants of: B1
Test: polymerase ribozyme fitness, log enrichment relative to wild type (log ratio); higher = more active; in vitro selection for triplet polymerase activity
Outline: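 A heterodimeric triplet polymerase ribozyme had each of its subunits mutagenized by PCR into a library, which was transcribed. One round of in vitro selection, done in triplicate, annealed each library with a biotinylated primer, its partner subunit and triplets, then incubated it frozen at −7 °C before gel excision of extended constructs, streptavidin-bead capture and RT-PCR. Fitness is the logarithm of genotype enrichment relative to wild-type enrichment, based on Illumina sequencing of inputs and outputs and inverse-variance-weighted replicate averages. A base-2 logarithm is used, and genotypes were kept only with ≥10 input reads and ≥1 read per output.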

Row | Variant | polymerase ribozyme fitness (log ratio)
1 | C69G C72U U134A | ≤ -4.2
2 | G65C G80A C96A A150C | ≤ -4.2
3 | G74C G92U | -4.02
4 | G74C C118U | -4.02
5 | G70A G88C C96G U134G | ≤ -4.2
6 | G68U G94C C116A A121C | ≤ -4.2
7 | G67A G84U | ≤ -4.2
8 | G67C U130C A138G | ≤ -4.2
9 | A66G C87A C103A | ≤ -4.2
10 | C72U A91U G92A U127G | ≤ -4.2
11 | G71C C75A U77A G92A | ≤ -4.2
12 | G65U G68U G81U C95A C99G C105U | ≤ -4.2
13 | A73G C76U C93A C99A U145A | ≤ -4.2
14 | A73C C95U U111C | ≤ -4.2
15 | A73G C76A G88C C105G C108G C114U G136U | -3.91
16 | C72G A89G G92A G128C | ≤ -4.2
17 | G71U A142C | ≤ -4.2
18 | G70A G74C C125G U144G | ≤ -4.2
19 | A66U C87A A106U G143C | ≤ -4.2
20 | G68C A91C A106U U127A | ≤ -4.2
21 | G70A C87U C96A C118G A147C | ≤ -4.2
22 | G70U U139G | -2.93
23 | A66C G74U C85G G86U A107C U146G | ≤ -4.2
24 | A73G G88A A107G | ≤ -4.2

Row | Variant | polymerase ribozyme fitness (log ratio)
25 | G70A A150C | ≤ -4.2
26 | A66C G100U U102A | ≤ -4.2
27 | C69A G83A G143U | -3.59
28 | A66C G71C G84U | ≤ -4.2
29 | G68U A73G C79G C85U U102G A113C G124A | ≤ -4.2
30 | G68C C96A A97C C105U U146C C149U A150G U151G | ≤ -4.2
31 | C72G G80C G81U C93G C105A A115U | ≤ -4.2
32 | G71A G88A C93U A113U C116U G117U U148A G152U | ≤ -4.2
33 | A73U C87G C116A A122G | ≤ -4.2
34 | G74A G100U U104C U109G U146A | ≤ -4.2
35 | C72G U77C | ≤ -4.2
36 | G65C G68A G80A G84U C87G U139C | ≤ -4.2
37 | C69G C75A G86U A91U C149U | ≤ -4.2
38 | C75A A91U U101A | ≤ -4.2
39 | C69U A110U | ≤ -4.2
40 | A73G G128C | -3.67
41 | G70A G84A C93G A137U G140U | ≤ -4.2
42 | G74A A89C | ≤ -4.2
43 | A66C G71A A73G G83C U151A | ≤ -4.2
44 | A73G G83U C87A A89C | ≤ -4.2
45 | G71U G92U G136A | -2.26
46 | A73G C87G U101G U139C | ≤ -4.2
47 | C69A C85G A121C | -3.43
48 | G67C C93G C118G A150C | ≤ -4.2

Row | Variant | polymerase ribozyme fitness (log ratio)
49 | A73G C85U G126U C131G | ≤ -4.2
50 | G68A C72A G83U C93G G140A U148C | ≤ -4.2
51 | G74U C85G C99A A107U C125A | ≤ -4.2
52 | C69U A119U | -1.57
53 | C75G U127G | ≤ -4.2
54 | G70A G86U | -3.77
55 | G74A C85U A98G C105U | ≤ -4.2
56 | G68A C76A G86A U102C G124C G152A | ≤ -4.2
57 | C72U U139C G143A | ≤ -4.2
58 | A73G G80C G84A | ≤ -4.2
59 | A66C G86U C118A A137U | ≤ -4.2
60 | C75U C93U G143U | -3.61
61 | C75G G84U A107U A121G | ≤ -4.2
62 | G70A G88C | ≤ -4.2
63 | G70A C79A C87G C99U C105U A142G | ≤ -4.2
64 | G65C C79A C96A | ≤ -4.2
65 | G67A C87U G92A G100A | ≤ -4.2
66 | A66C G92A G128A U130G | ≤ -4.2
67 | A66U C76A C87A G140U C149U | ≤ -4.2
68 | C72G G92U G126A | ≤ -4.2
69 | G71A C85G C87U | ≤ -4.2
70 | A73U G84A U144C | -1.83
71 | G70C C99U U134C | ≤ -4.2
72 | C75U G80C G88U U90C C95G | ≤ -4.2

Row | Variant | polymerase ribozyme fitness (log ratio)
73 | G68A G88A C96G C118A G126A | -4.16
74 | G68U C85A A110G C132G A137G G141C U151G | ≤ -4.2
75 | G68U A91C U104G U134C | ≤ -4.2
76 | C75A C95U A98U C103U U145G U146G | ≤ -4.2
77 | G70C G86A C114U A115G G143U A150C | ≤ -4.2
78 | A73U G128C | ≤ -4.2
79 | G71A G86A | -3.5
80 | A73G C99U | -0.979
81 | A73U A107U U139G U148A | ≤ -4.2
82 | A73G C85U G88A A119U U134A G140C | ≤ -4.2
83 | A66U A106C G117U | ≤ -4.2
84 | G71A C95G C99A A138U | ≤ -4.2
85 | G67C A97C C103G C125U C129U A142U G143C A150U | ≤ -4.2
86 | C69U U90A U135A A138G U139A | ≤ -4.2
87 | G70C G88U | ≤ -4.2
88 | A73G U104A A110C | ≤ -4.2
89 | C75G G83A A121C | ≤ -4.2
90 | A66G G68C U102A | ≤ -4.2
91 | C75A U78C C123U G128C | ≤ -4.2
92 | C72U C87U U101G G124C | -1.6
93 | G71C C76G A113U G124A | ≤ -4.2
94 | G68C C93A C125U U146A | ≤ -4.2
95 | G74U U146A | ≤ -4.2
96 | C75G G83A G100A A107U C116G | ≤ -4.2

Row | Variant | polymerase ribozyme fitness (log ratio)
97 | C75A G86A A120C | ≤ -4.2
98 | G68U C85G | ≤ -4.2
99 | C69U C118U | -1.4
100 | C75G G100C U135A | ≤ -4.2
101 | C75U A137C | -3.47
102 | G71C G81U A106C | ≤ -4.2
103 | G70A C96A G143A U146G | ≤ -4.2
104 | C69U A106C U135A G141A | ≤ -4.2
105 | C69A G143U | -3.34
106 | G68C C99G A122C A150C | ≤ -4.2
107 | G70U U78G G83C U102C U144A U146G C149A | ≤ -4.2
108 | G70A C76A C79G A91U | ≤ -4.2
109 | G71U C114U | ≤ -4.2
110 | A66G C125G U146A | ≤ -4.2
111 | G68U C79A U102G A119G | ≤ -4.2
112 | C75G U78G U82C C118A U151C | ≤ -4.2
113 | G70A G83A G86A | ≤ -4.2
114 | C75G U82G G94A C96A C105G U109A | ≤ -4.2
115 | G68A C87U C114A U144C | -4.11
116 | G67U G70A U130C U145G | ≤ -4.2
117 | C75U C93G | -3
118 | A66C C76U U82G C85G C125G | ≤ -4.2
119 | A73G C85A G124C C129G | ≤ -4.2
120 | G68C U77A A138G | ≤ -4.2

Row | Variant | polymerase ribozyme fitness (log ratio)
121 | G71C C85U | -3.27
122 | A66C C87A G124C U134A G136A U139G | ≤ -4.2
123 | G68C C85U | -3.93
124 | C69G C103A U144G | -1.57
125 | C75A C103G | ≤ -4.2
126 | G65C C85U C116G | ≤ -4.2
127 | G70U C85U G88C U145C | ≤ -4.2
128 | A73G C87A G94U C118U A121G G152C | ≤ -4.2
129 | G65C C132G | ≤ -4.2
130 | G71U C116U | -2.4
131 | G70C A91C C95U U144C | ≤ -4.2
132 | G74A | -2.81
133 | G74C | -3.96
134 | G74U | -3.33
135 | A73G C125G G133A U146G | ≤ -4.2
136 | G68A A91C A120G A147C | ≤ -4.2
137 | G71A G88A A138C | ≤ -4.2
138 | C72U A97C C103G C131G A137C U146A | ≤ -4.2
139 | G70A C87U A106G | -2.89
140 | A66G G133U U145A | ≤ -4.2
141 | G67A G68C A142G U145G | ≤ -4.2
142 | A73U A91U G140A | ≤ -4.2
143 | A73U U109A C118G C132U | ≤ -4.2
144 | C72G A91U | ≤ -4.2

Row | Variant | polymerase ribozyme fitness (log ratio)
145 | A66C G67A A115C G126U U139G | ≤ -4.2
146 | G71U A89U | -2.83
147 | A66C U77C C99U C108U | ≤ -4.2
148 | C75A U82C C93U | ≤ -4.2
149 | C69U G84A A106C | -2.41
150 | G68U G128U | ≤ -4.2
151 | A66G C85U G100U G112C U146C | ≤ -4.2
152 | G68A C79A C85G C125A C129U | ≤ -4.2
153 | G74A G84A A137U | ≤ -4.2
154 | G65U C72A C96G A97U | ≤ -4.2
155 | A73G C93U G141U | 0.326
156 | C72G G83U G124U G128U G133A U148A | ≤ -4.2
157 | C72U C93A A137G | ≤ -4.2
158 | C72U C85G | -1.95
159 | C75A G86U | ≤ -4.2
160 | C75U C85U | 0.543
161 | C75U C85A | -1.84
162 | C72U G83A C93U U111C A120U G143U | ≤ -4.2
163 | A66C C85G A98U U101G G143U | ≤ -4.2
164 | G67A U77G A98G U144A | ≤ -4.2
165 | G67A | -3.22
166 | G67U | -2.55
167 | G67C | -3.97
